Test results published in the supplement of paper PMC3334620.
Over roughly 33,000 sequences, “E-score (-0.5 to 0.5)” has its median near -0.035; the highest 2% begin near 0.34. Some of the results follow.

target: T1, Mot3 (UniProt P54785); experiment: PBM E-score (8-mer binding enrichment) (E-score (-0.5 to 0.5)); higher = stronger / more preferred TF binding; most listed sequences are background and not binding sites; conditions: protein concentration: 200 nM; construct: GST-full length
T1 sequence: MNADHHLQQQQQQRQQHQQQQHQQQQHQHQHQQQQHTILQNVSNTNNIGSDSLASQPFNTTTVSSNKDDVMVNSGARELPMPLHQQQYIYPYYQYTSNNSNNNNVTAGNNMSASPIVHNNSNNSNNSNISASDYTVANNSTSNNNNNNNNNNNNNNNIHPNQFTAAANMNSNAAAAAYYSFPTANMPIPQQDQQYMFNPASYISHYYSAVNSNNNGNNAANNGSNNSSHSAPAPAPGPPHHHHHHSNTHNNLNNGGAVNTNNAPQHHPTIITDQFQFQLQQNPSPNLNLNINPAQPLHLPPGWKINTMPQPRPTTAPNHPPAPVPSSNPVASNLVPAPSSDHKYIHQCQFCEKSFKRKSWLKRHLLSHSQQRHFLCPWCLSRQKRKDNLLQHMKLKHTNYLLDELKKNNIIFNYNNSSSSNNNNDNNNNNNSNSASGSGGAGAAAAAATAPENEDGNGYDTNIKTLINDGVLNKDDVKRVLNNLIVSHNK
Outline: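 Universal all-10-mer Agilent arrays, fresh or stripped once, were converted to double-stranded form by primer extension. GST-tagged yeast transcription factors from PURExpress in vitro transcription/translation, full-length or DNA-binding domain only, were applied at about 100-200 nM and detected with fluorescent anti-GST. After masliner normalisation, the Universal PBM Analysis Suite scored each ungapped eight-base word together with its reverse complement by E-score.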

Sequence | PBM E-score
ATATCCGA | -0.0238
AGTATCCG | -0.0586
ACGGAGTC | -0.244
CCCCGGTA | -0.335
CACCCCCC | -0.273
AAAACAGC | -0.0141
CACGGACC | -0.00933
GTCCGATA | -0.121
TGTCGCAA | 0.0879
AACCCTAG | 0.0349
AGAAAGTA | 0.121
GGCGCGAC | 0.00273
CCGTGCAC | -0.285
AAATGCCA | -0.105
GGTCATAA | -0.061
ACGTCAAG | 0.00531
AAGGCACA | 0.492
TAGGGTAA | 0.0681
ACGTGAAA | 0.323
ATCATGAT | 0.0944
CGCCATTC | -0.202
ACCCACTA | -0.102
AGTGCCCC | -0.292
CATCGAGG | 0.0972
GTGCTCAA | 0.0538

Sequence | PBM E-score
CCTCCCCC | -0.214
CCCGAATC | -0.243
TCGCCTCA | -0.043
GTATGCGA | 0.0114
AGCGTACC | 0.113
ACAGATAA | 0.234
AATCAATC | 0.0571
CTCCGTTA | -0.0131
GATGTTAA | 0.268
ATCCTCCC | -0.24
CATTACCA | 0.0379
AGGCGGGG | -0.117
CAAGGACC | 0.0666
ACGTGTAA | 0.414
AAGCGCAG | -0.124
ATTATTTA | 0.19
ATATTCGA | -0.121
CCTTACTA | -0.0342
ACACTGTA | 0.13
TCTCTCCA | -0.208
TCCCAGAA | -0.18
CACTACAG | 0.127
CGGAGTAC | -0.147
GGTAACCA | 0.0763
ATGTAGTC | 0.287

Sequence | PBM E-score
GCTTTGAA | -0.0793
TGATCCCA | -0.142
ACGTGAAC | -0.0329
CGTGGAAC | -0.263
ATTGTGGA | 0.0501
GACGGGGA | -0.354
CGCGGGCC | -0.0658
CCATTCAG | -0.162
CAGATGCC | -0.0717
GCTTGGTA | -0.00245
AGGTCCTA | -0.217
GGATGGGA | -0.214
CATGGTAC | -0.048
CCCGTGAG | -0.175
CCCGCAGG | 0.152
TAGTACAA | 0.216
AAAAGCCA | 0.171
CGCACTTA | -0.067
TCGGTACA | 0.141
ACGTCAGG | -0.098
CATCGGGG | -0.203
AAAGGCTG | 0.0993
CACTTCTA | 0.00307
AAGAACGA | 0.0545
CTGATCAC | -0.15

Sequence | PBM E-score
TCTTTACA | 0.389
CGCTCCAC | -0.234
CATTTTAG | 0.0505
ACAGCCTC | -0.00172
AGCTAAAA | 0.0642
ATGGCATG | 0.191
TAGAGCAA | 0.105
ATTCGAAG | 0.0612
GGTACTCA | 0.0108
ATAGCGAT | -0.11
AGGGCCTC | -0.148
CGCGGTAA | 0.204
AAGGCTGT | 0.00261
GGTCGAAA | -0.0692
GACCCTAC | -0.177
CTGCCGTA | -0.0781
GCACCATA | 0.017
TATCACAA | 0.072
CTTTTGTC | 0.0279
CCCTTCAC | -0.114
GGTTCGTA | -0.0682
TAACGATA | 0.0454
AGAACCTG | 0.156
ATGTCGTA | 0.191
GATTAAAC | 0.0928

Sequence | PBM E-score
CGTGTCCA | 0.0828
AGGGACTC | -0.387
ACCAAGTG | -0.143
AGGGCGGA | -0.316
CAGCTCAG | -0.188
GTCGGCGA | -0.208
TGATCGAA | 0.0888
TATGCCGA | -0.0784
AATGGTGT | 0.113
ATATTTCC | -0.0617
CCTGTCCC | -0.19
CTTCTGCC | -0.117
GTTTGGCA | -0.0797
AGCGACAA | -0.129
AAGGTTTG | 0.0771
GCCGTCAA | -0.127
CGAGCTTA | -0.135
CCTGATCC | 0.0889
AAGCTTGT | 0.196
AAATACCC | -0.0215
TATGGCAA | -0.0849
CCTATCTC | -0.0667
CTGGAGCA | -0.299
GACGGCTC | -0.209
CATACAGA | -0.0665

Sequence | PBM E-score
ATGGAGGC | 0.107
CTACGTAA | 0.272
ATGCCTGC | 0.407
AAGTTCGA | 0.0884
AGTCAACT | -0.198
CTAGTGCA | -0.0833
CTGTACGC | 0.0458
GCCGAAAA | -0.0443
TGTGCCAA | 0.042
GCCAAACA | -0.156
GCCGCACC | -0.122
CCTGACAG | 0.00724
CCAAGCTC | -0.134
CACAATAA | -0.0556
CAGTATTC | -0.0628
CAATCGGC | -0.236
ACAAATTC | -0.00971
AGGGCTCA | -0.0909
ACAGTACT | 0.0809
CTCCCGTC | -0.0798
AATCGGGA | -0.0982
CTATCGAC | 0.0438
GCAAAGCA | 0.0102
GCTCGGCC | -0.336
CTCGAACA | 0.0352

Sequence | PBM E-score
CAATTGAC | 0.0557
AGTTCTAC | 0.106
ACCGACCG | -0.193
CCGTAGCC | -0.115
ACTTACTG | -0.0769
CCATTGCA | 0.0255
ATTTGGCA | 0.0539
GAGACTCA | -0.251
CCACCGCC | -0.172
GCCTGTTA | 0.35
AGATGAAG | -0.143
GGCAACCA | 0.162
ATTTCTTC | -0.0467
AGGGGCTG | -0.126
ACTCATGG | -0.0553
GCAAATCC | -0.0381
AGCATCCA | -0.282
ATGGTTAG | 0.084
CTCCACAC | -0.075
CTATCCTA | 0.113
CGGTAATC | -0.149
GCCGCCAC | -0.318
